# PubChem BioAssay (EPA / NIEHS)
# Only a part is listed here, and it is no random draw. Inconclusive results are not listed. Activity calls are given as the source filed them. How the source made its calls: active means hit-call score of the fitted dose curve at least 0.9, where 1 is the maximum; inconclusive means response in the unintended direction; inactive means score below 0.9.
# Experiments:
# [1] = molecular target: human Peroxisome Proliferator-activated Receptor alpha (PPARa), PPARA (gene 5465) (UniProt Q07869); assay: ATG_PPARa_TRANS: Attagene TRANS-FACTORIAL HepG2 Assay for human Peroxisome Proliferator-activated Receptor alpha (PPARa) (AID 2283001)
# Chain of UniProt Q07869 (Q07869 whole entry, looked up, the tested form may be a part): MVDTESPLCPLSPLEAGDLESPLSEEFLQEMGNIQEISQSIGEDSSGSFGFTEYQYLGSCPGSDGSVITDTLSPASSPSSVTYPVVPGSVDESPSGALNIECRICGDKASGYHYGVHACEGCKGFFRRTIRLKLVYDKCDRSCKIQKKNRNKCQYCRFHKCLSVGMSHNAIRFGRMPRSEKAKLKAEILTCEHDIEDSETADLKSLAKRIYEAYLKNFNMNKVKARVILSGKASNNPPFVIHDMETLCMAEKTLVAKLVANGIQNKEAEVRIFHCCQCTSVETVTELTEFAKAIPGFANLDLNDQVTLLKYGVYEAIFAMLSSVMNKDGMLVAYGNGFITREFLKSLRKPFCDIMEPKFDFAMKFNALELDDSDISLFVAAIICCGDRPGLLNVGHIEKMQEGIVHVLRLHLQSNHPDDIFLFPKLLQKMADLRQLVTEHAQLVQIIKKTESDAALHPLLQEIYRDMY
# How it was run: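 Reporter transcripts quantified by RT-PCR plus capillary electrophoresis after 24 h treatment, fitted upward relative to DMSO. Cells: human HepG2 transiently carrying multiple GAL4-UAS reporter units driven by NR-Gal4 chimeras.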
# [2] = molecular target: Peroxisome proliferator-activated receptor gamma (Homo sapiens) (UniProt P37231); assay: ATG_PPARg_TRANS: Attagene TRANS-FACTORIAL HepG2 Assay for human Peroxisome Proliferator-activated Receptor-gamma (PPARg) (AID 2283007)
# Chain of UniProt P37231 (P37231 whole entry, looked up, the tested form may be a part): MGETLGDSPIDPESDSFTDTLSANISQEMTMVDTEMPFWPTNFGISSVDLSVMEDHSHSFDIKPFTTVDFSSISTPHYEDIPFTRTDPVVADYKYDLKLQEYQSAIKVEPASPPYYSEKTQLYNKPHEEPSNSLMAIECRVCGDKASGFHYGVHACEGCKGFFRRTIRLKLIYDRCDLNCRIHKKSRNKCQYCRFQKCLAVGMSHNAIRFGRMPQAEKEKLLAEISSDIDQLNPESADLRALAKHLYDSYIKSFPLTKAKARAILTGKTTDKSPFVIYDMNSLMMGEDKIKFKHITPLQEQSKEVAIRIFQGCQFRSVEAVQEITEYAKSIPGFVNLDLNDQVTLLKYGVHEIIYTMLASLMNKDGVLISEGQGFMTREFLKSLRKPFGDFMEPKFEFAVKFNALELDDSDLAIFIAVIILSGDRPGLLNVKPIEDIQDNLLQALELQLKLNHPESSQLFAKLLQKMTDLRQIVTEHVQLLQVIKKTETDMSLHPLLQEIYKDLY
# How it was run: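 HepG2 cells transiently transfected with multiplexed GAL4-UAS reporter units and exogenous chimeric NR-Gal4 proteins; reporter mRNA quantified after 24 h compound exposure by RT-PCR, fluorescent labelling, HpaI digestion and capillary electrophoresis; gain-of-signal fitted versus DMSO baseline.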
SMILES,outcome [1],AC50 [2]
O=[N+]([O-])c1c2ccccc2cc2ccccc12,inactive,–
COc1nn(CSP(=S)(OC)OC)c(=O)s1,–,active: 28.4 µM
